Where a name gives a salt, the structure may show the parent alone. Read-outs that look alike come from different tables or passages of the source. Some values that stand alone complete this part of the results.
Work on `CC(O)(c1ccncc1)c1cnc(-c2ccc(F)cc2)s1` (racemic) (as salt: sulfonic acid salt) [Example 7, 1-(2-(4-Fluorophenyl)thiazol-5-yl)-1-(pyridin-4-yl)ethanol] yielded a melting point (4-methylbenzenesulfonic acid salt) of 181 to 184 °C and a melting point (benzenesulfonic acid salt) of 165 to 167 °C.

From patent US8809372B2, “Pyridine derivatives” (Endo Pharmaceuticals, Inc., priority 2011, dated 2014)
